Out of some 360,000 compounds screened, about 16,000 (4.4%) were called active. The inconclusive results got no clear call from the source; some entries with a clear call stand among them for comparison. Calls follow the shape of the dose curve; as a rule, active = well fitted inhibition curve with a large enough effect; inconclusive = small, poorly fitted or top-dose-only effect; inactive = no such curve, though single readings can be large or run the other way. A potency beside an inconclusive call is a rough fit, not a confirmed value.
molecular target: Bromodomain adjacent to zinc finger domain protein 2B (Homo sapiens) (UniProt Q9UIF8); test: qHTS Assay for Inhibitors of BAZ2B; conditions: AlphaScreen BAZ2B-H3K14Ac peptide displacement; activity change, negative = inhibition: at 114 µM (top of the series); also: nearly all actives have a fitted effect of over 60% in size
Procedure, shortened: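 BAZ2B (50 nM) with biotin-H3(5-23)K14Ac peptide (50 nM) in PBS pH 7.4, 0.01% Tween-20, preformed 30 min, then compound 30 min at room temperature; top concentration 110uM. AlphaScreen streptavidin donor/nickel chelate acceptor beads (10 ug/mL final), 20 min dark, signal read.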
% is scaled to controls: 0 for no effect and ±100 for the full control effect; potency is read from the fitted curve at half-maximal effect; tags tell the direction and shape of the fitted curve.

Chain of UniProt Q9UIF8 (Q9UIF8 whole entry, looked up, the tested form may be a part): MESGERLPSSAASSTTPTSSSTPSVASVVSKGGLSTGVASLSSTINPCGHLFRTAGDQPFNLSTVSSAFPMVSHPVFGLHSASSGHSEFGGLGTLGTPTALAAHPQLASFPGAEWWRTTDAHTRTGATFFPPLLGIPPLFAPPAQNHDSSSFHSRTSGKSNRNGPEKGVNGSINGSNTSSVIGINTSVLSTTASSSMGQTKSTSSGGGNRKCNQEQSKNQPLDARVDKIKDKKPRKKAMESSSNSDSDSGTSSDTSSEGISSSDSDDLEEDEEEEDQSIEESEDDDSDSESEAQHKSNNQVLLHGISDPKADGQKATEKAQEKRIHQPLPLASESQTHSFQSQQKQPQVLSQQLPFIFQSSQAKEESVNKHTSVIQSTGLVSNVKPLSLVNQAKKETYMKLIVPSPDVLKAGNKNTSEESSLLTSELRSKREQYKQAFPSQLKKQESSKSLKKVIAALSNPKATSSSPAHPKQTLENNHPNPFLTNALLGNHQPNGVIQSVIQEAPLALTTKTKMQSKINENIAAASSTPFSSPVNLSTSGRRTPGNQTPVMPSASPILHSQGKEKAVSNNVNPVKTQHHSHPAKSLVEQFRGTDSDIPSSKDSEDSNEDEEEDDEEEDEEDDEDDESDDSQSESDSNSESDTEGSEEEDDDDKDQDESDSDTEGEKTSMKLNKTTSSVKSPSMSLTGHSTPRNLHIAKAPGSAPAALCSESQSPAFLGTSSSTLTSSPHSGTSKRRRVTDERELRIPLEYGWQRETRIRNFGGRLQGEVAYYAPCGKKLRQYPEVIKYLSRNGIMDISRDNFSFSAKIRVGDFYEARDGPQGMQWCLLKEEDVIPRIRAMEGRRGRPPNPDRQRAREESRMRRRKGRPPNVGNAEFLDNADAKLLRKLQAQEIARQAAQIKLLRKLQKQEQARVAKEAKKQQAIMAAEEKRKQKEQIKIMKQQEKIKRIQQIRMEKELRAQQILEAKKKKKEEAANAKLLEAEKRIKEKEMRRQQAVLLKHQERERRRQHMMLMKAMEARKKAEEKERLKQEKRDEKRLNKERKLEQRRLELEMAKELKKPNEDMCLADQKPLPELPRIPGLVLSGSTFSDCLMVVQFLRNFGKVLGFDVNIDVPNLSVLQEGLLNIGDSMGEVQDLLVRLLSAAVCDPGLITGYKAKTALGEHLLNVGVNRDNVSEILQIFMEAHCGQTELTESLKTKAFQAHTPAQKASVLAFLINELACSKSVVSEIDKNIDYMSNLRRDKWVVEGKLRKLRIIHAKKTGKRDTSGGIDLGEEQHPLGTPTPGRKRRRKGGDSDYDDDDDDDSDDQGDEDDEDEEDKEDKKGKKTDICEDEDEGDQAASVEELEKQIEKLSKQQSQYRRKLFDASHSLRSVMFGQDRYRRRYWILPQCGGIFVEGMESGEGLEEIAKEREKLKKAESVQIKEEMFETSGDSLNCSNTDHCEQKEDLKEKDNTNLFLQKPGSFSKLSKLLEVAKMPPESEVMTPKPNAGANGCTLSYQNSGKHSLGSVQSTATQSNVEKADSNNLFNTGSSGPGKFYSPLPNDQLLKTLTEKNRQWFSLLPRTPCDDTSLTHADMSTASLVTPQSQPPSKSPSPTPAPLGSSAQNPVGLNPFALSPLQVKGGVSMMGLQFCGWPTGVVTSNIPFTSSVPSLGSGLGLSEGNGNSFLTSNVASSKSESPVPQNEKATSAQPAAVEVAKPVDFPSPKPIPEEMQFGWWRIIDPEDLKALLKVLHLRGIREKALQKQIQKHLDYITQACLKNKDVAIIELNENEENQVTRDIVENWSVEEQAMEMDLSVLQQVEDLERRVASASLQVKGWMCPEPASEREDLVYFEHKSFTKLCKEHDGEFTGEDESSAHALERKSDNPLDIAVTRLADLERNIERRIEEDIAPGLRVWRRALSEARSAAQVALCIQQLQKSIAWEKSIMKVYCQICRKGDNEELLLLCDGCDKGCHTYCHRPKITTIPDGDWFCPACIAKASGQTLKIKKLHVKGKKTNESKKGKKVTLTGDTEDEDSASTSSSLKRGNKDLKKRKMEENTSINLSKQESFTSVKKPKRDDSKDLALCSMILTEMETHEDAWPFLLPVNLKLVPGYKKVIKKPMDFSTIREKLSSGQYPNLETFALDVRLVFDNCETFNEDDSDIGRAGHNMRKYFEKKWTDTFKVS

Structure (SMILES)	Potency	activity change, negative = inhibition
Cc1nc2c(C(=O)NCCc3ccc(Cl)cc3)cnn2c(C)c1Cc1ccc(F)cc1	inactive	
S=c1[nH]nc(-c2cc(-c3ccsc3)n[nH]2)n1-c1cccc2ccccc12	inconclusive: 35.5 µM [inhibitor, partial curve]	
C/C(CCC(C)C)=N\Nc1ccc(S(N)(=O)=O)cc1[N+](=O)[O-]	inconclusive: 20 µM [inhibitor, partial curve]	
CN(C)c1ccc(CNCCC2CCOC(C)(C)C2)cc1 (stereo not drawn)	inconclusive: 12.6 µM [inhibitor, full curve]	
COc1cc(OC)cc(-c2n[nH]c(=S)n2-c2ccc3c(c2)OCCO3)c1	inactive	
COc1cccc(C(=O)NC2CC3CCCC(C2)N3CC(=O)Nc2ccc(N(C)C)cc2)c1 (stereo not drawn)	active: 44.7 µM	
CC(C)c1ccc(OCC(=O)NCC(c2ccc(Cl)cc2)N2CCOCC2)cc1 (stereo not drawn)	inactive	
O=[N+]([O-])c1c(NCCCO)cc(N2CCN(Cc3ccc4c(c3)OCO4)CC2)c2nonc12	inconclusive: 70.8 µM [inhibitor, single point]	
c1ccc(-c2csc(NC3=NCCCCC3)n2)cc1	inactive	
CCOc1ccc(Br)cc1S(=O)(=O)NC1CC(C)(C)NC(C)(C)C1	inactive	
CC(C)(C)OC(=O)N/N=C/c1cccn1-c1ccc([N+](=O)[O-])cc1	inconclusive: 50.1 µM [inhibitor, partial curve]	
O=C(COC(=O)c1ccc(Sc2ccccc2)c([N+](=O)[O-])c1)NC1CCS(=O)(=O)C1 (stereo not drawn)	inconclusive: 89.1 µM [inhibitor, single point]	
CC(=O)N1C(=O)/C(=C2\SC(=S)N(NC(=O)c3ccc(O)cc3)C2=O)c2ccccc21	active: 39.8 µM	
O=c1[nH]c(-c2ccccc2)c(-c2ccccc2)[nH]1	inconclusive: 89.1 µM [inhibitor, single point]	
Cc1ccc(C(=O)NC(=S)NCc2cccnc2)cc1	inconclusive: 79.4 µM [inhibitor, single point]	
CC(C)CCC(O)(CCC(C)C)C(=O)NN1CCCCC1	inconclusive: 89.1 µM [inhibitor, single point]	
COc1cc(/C=C2/C(=N)N3C(=NC2=O)SN=C3S(C)(=O)=O)ccc1OC(=O)c1ccco1	inconclusive: 79.4 µM [inhibitor, single point]	
Cc1cc(C)cc(Nc2cc(C)nc3nc(-c4ccco4)nn23)c1	inactive	
O=C(N=NC(=O)c1ccco1)c1ccc2c(O)n(N3C(=O)c4ccccc4C3=O)c(O)c2c1	inactive	
O=C(N/N=C/c1ccc(Cl)cc1)C(=O)N1CCCCCC1	inconclusive: 1.78 µM [inhibitor, full curve, poor fit]	
CC1(C)C2CCC1(C)C(NCC(O)COc1ccc(C#N)cc1)C2 (stereo not drawn)	active: 25.1 µM	
O=C(c1ccc(S(=O)(=O)N2CCC(c3nc4ccccc4[nH]3)CC2)cc1)N1CCOCC1		inconclusive: -115% [inhibitor]
O=C(CN1C(=O)CC(c2ccco2)Sc2ccccc21)Nc1ccccc1F (stereo not drawn)	inconclusive: 89.1 µM [inhibitor, single point]	

Structure (SMILES)	Potency	activity change, negative = inhibition
COc1ccc(CN2CCOCC2)cc1	inconclusive: 35.5 µM [inhibitor, single point]	
COc1ccc(C(=O)c2ccc([N+](=O)[O-])cc2Cl)cc1	inconclusive: 35.5 µM [inhibitor, partial curve]	
Nc1nc2ccc(Cl)cc2c2nc(-c3ccco3)nn12	inactive	
Nn1c(SCC(=O)Nc2nccs2)nncc1=O	inconclusive: 50.1 µM [inhibitor, partial curve, poor fit]	
CSc1cccc(NC(=O)CN2C(=O)COc3ccc(S(=O)(=O)N4CCC(C)CC4)cc32)c1	inactive	
S=c1[nH]c2ccccc2n2c(=S)[nH]nc12	active: 50.1 µM	
CCOC(=O)N1CCC(N2Cc3cccc(C(=O)Nc4ccc(S(=O)(=O)N(CC)CC)cc4)c3C2=O)CC1	inconclusive: 17.8 µM [inhibitor, single point]	
COc1ccc(Nc2ccnc(Nc3ccc(OC)cc3)n2)cc1	active: 44.7 µM	
CC(C)(C)c1ccccc1NC(=O)c1cnn2c(C(F)F)cc(-c3ccccc3)nc12	inconclusive: 89.1 µM [inhibitor, single point]	
S=c1[nH]nc(-c2ccccc2)n1/N=C/C=C/c1ccco1	inconclusive: 50.1 µM [inhibitor, partial curve]	
CCC(=O)OC1(C)C(=O)C2=COC(c3ccc(OC)cc3)=CC2=C(Br)C1=O (stereo not drawn)	inconclusive: 79.4 µM [inhibitor, partial curve]	
O=C(c1ccc(Oc2ccc(Cl)cc2)c([N+](=O)[O-])c1)N1CCCC1	inconclusive: 56.2 µM [inhibitor, partial curve]	
COc1cc(Nc2ncc3c(n2)CCN(Cc2cc(F)cc(F)c2)C3)cc(OC)c1	inconclusive: 22.4 µM [inhibitor, full curve]	
COc1cc(/C=C/[N+](=O)[O-])ccc1OCc1cccc(C(=O)O)c1	active: 28.2 µM	
COc1ccc(CN2CCN(C(=O)CCC(=O)Nc3nnc(C4CCCCC4)s3)CC2)cc1F	inconclusive: 79.4 µM [inhibitor, single point]	
Cc1ccc(C2C=C(c3ccc(Cl)cc3)Nc3nc(NC(=O)c4ccco4)nn32)cc1 (stereo not drawn)	active: 50.1 µM	
COc1ccc(NC2c3ccccc3C(=O)N2Cc2ccccc2Cl)cc1OC (stereo not drawn)	inconclusive: 39.8 µM [inhibitor, partial curve]	
Cc1ccc(S(=O)(=O)NNC(=O)c2cnn(-c3ccccc3)c2-n2cccc2)cc1	inconclusive: 39.8 µM [inhibitor, partial curve]	
Cc1cc(C(=O)COC(=O)c2ccncc2)c(C)n1Cc1ccco1	inconclusive: 79.4 µM [inhibitor, single point]	
Cc1ccccc1C(=O)NC(=S)Nc1ccc(S(=O)(=O)N2CCN(C)CC2)cc1	inconclusive: 89.1 µM [inhibitor, single point]	
Cc1cccc(N2CCN(S(=O)(=O)c3c(C(=O)N4CCC(C)CC4)c(C)n(C)c3C)CC2)c1C	inconclusive: 44.7 µM [inhibitor, partial curve]	
N#CCC(CNc1ncc(C(F)(F)F)cc1Cl)OC(=O)c1ccc(Cl)cc1Cl (stereo not drawn)	inactive	
Cc1ccc(NC(=O)Cn2cnc3sc(C)c(S(=O)(=O)N4CCN(c5ncccn5)CC4)c3c2=O)cc1F	inactive	

Structure (SMILES)	Potency	activity change, negative = inhibition
CCN(CC)CCn1c(SCC(=O)Nc2ccc3c(c2)CCC3)nc2ccccc2c1=O	inconclusive: 56.2 µM [inhibitor, partial curve]	
O=C(/C=C/c1cccs1)NC(=S)Nc1ccccc1	active: 31.6 µM	
COc1ccc(O)c(/C=N/n2c(-c3ccco3)csc2=Nc2cccnc2)c1	inconclusive: 39.8 µM [inhibitor, partial curve]	
Cc1nc(-c2ccc(S(=O)(=O)N3CCN(C(c4ccccc4)c4ccccc4)CC3)s2)cs1	inconclusive: 7.94 µM [inhibitor, full curve, poor fit]	
CC(C)c1ccc(NC(=O)CCn2c(=O)c3cccn3c3ccccc32)cc1	inactive	
CCOc1ccc(CCNC(=O)c2ccc3c(c2)sc2nc(-c4ccc(F)cc4)cn23)cc1OCC	inactive	
O=C(/C=C/c1ccc(-c2cccc([N+](=O)[O-])c2)o1)N1CCOCC1	inconclusive: 70.8 µM [inhibitor, single point]	
CC(C)(NO)/C(=N/O)c1ccc(Br)cc1	inconclusive: 79.4 µM [inhibitor, partial curve]	
Cc1ccc(Cl)cc1NC(=O)Cn1ncc2c(C)n(Cc3ccccc3F)c(C)c2c1=O	inconclusive: 79.4 µM [inhibitor, single point]	
COC(=O)c1ccc(NC(=S)N2CCN(Cc3ccccc3OC)CC2)cc1	inconclusive: 79.4 µM [inhibitor, single point]	
O=C1C2CCCN2C(=S)N1c1cc(Cl)ccc1Cl (stereo not drawn)	inactive	
Cc1ccc(Cl)cc1NC(=O)COC(=O)c1ccc(N2CCCC2)c([N+](=O)[O-])c1	inactive	
COc1ccc(C(C(=O)NC(C)C)N(C(=O)CCC(=O)Nc2nccs2)c2ccccc2F)cc1 (stereo not drawn)	inactive	
O=C(C1CN(S(=O)(=O)c2ccccc2)CCN1S(=O)(=O)c1ccccc1)N1CCCCCC1 (stereo not drawn)	inconclusive: 89.1 µM [inhibitor, single point]	
CCOC(=O)c1c(C)[nH]c(C)c1S(=O)(=O)N(C)CC(=O)Nc1ccccc1	inconclusive: 79.4 µM [inhibitor, single point]	
CCN(CC)CCOC(=O)c1ccc(N/C=C(/C#N)c2nc(-c3ccc(OC)c(OC)c3)cs2)cc1	inactive	
O=C(CSc1ccc2nnc(CCNC(=O)c3ccccc3)n2n1)NCc1ccc(F)cc1	inactive	
Cc1cc(NS(=O)(=O)c2ccc(Nc3nc(-c4ccc(O)cc4)cs3)cc2)no1	inconclusive: 79.4 µM [inhibitor, single point]	
C=CCCC(=O)Nc1nc(C)c(-c2csc(Nc3cc(Cl)ccc3OC)n2)s1	inconclusive: 79.4 µM [inhibitor, single point]	
CC(=O)c1c(C)[nH]c(C(=O)NC2CCSc3ccccc32)c1C (stereo not drawn)	inconclusive: 79.4 µM [inhibitor, partial curve]	
C[C@H](NC(N)=O)C(=O)Nc1ccc(N2CCOCC2)c(S(=O)(=O)Nc2ccc(Cl)cc2)c1	inconclusive: 89.1 µM [inhibitor, single point]	
CN1C(=O)C2(OCC(COc3ccc(Cl)cc3)O2)c2ccccc21 (stereo not drawn)	inactive	
